Among all 310,000 compounds or so, about 14,000 (4.5%) showed an effect of 50% or more. Effects have a minus sign here. The list shows a part of the results.
These molecules were tested against human ether-à-go-go-related gene (hERG) potassium channel (human, UniProt Q12809) (assay: primary screen, population patch clamp on CHO cells stably expressing hERG).
Sequence of human ether-à-go-go-related gene (hERG) potassium channel (Q12809 whole entry, looked up): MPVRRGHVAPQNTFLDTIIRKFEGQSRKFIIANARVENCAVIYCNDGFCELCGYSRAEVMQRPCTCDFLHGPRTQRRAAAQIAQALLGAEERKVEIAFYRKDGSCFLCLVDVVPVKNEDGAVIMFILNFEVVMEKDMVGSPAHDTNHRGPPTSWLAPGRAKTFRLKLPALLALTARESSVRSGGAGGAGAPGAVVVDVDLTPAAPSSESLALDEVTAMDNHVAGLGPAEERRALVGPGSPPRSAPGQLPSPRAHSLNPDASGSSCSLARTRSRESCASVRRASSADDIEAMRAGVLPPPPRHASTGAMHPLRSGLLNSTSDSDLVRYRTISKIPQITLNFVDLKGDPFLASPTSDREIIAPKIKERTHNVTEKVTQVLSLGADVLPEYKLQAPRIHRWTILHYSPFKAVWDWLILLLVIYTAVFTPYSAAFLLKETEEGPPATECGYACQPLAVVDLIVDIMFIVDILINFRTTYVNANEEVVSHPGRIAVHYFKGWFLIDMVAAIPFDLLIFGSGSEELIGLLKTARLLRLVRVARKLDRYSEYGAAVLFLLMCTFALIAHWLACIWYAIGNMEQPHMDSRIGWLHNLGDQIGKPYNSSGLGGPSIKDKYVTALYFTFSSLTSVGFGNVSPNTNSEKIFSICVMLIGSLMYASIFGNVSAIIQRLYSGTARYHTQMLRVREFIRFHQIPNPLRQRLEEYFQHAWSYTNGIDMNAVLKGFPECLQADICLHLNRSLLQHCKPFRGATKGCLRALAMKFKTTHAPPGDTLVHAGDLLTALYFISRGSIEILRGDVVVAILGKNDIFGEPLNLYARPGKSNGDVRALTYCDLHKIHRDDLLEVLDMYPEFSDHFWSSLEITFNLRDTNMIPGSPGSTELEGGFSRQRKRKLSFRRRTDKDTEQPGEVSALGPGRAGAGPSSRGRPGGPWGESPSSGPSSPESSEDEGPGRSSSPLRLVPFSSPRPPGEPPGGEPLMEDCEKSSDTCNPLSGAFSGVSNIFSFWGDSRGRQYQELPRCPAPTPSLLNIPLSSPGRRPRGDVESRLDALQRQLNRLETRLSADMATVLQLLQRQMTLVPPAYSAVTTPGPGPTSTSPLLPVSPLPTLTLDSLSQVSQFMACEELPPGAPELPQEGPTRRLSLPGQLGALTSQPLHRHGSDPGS
In the case of `CN(CC(=O)Nc1ccc(F)cc1)CC(=O)N1CCCC1`, the “hERG current change (%, negative = inhibition) at 10uM” value is reported as 5.03%.
With `CC1CCN(C(=O)COC(=O)Cn2cnc3c2c(=O)n(C)c(=O)n3C)CC1` the “hERG current change (%, negative = inhibition) at 10uM” value was 12.3%.
With `COc1ccc(Br)c(C(=O)N(C)CC(=O)Nc2ccc(N3CCOCC3)cc2)c1` the “hERG current change (%, negative = inhibition) at 10uM” value was -7.73%.
For `NS(=O)(=O)c1ccc(NC(=O)CSc2nc3ccccc3n2-c2ccccc2)cc1`, the “hERG current change (%, negative = inhibition) at 10uM” value was 2.64%.
`CCCC(=O)N1c2ccccc2C(=C2SC(C(=O)OC)=C(C(=O)OC)S2)C(=S)C1(C)C` was tested, and the “hERG current change (%, negative = inhibition) at 10uM” value was -4.77%.
`O=C(COC(=O)c1cccs1)NCc1ccc2c(c1)OCO2` was tested, and the “hERG current change (%, negative = inhibition) at 10uM” value was -11.6%.
For `O=C(NCCc1nc2ccccc2[nH]1)c1cccc(Br)c1`, the “hERG current change (%, negative = inhibition) at 10uM” value was -20.8%.
With `O=C(CSc1ccccn1)Nc1nc2ccc(Br)cc2s1` the “hERG current change (%, negative = inhibition) at 10uM” value was -1.93%.
`CCOC(=O)CSc1nc2c(sc(=S)n2-c2ccc(CC)cc2)c(=O)[nH]1` was tested, and the “hERG current change (%, negative = inhibition) at 10uM” value was 8.67%.
`CC(=O)N1CCN(S(=O)(=O)c2cccc(C(=O)OCC(=O)NC(=O)c3cccn3C)c2)CC1` was tested, and the “hERG current change (%, negative = inhibition) at 10uM” value was 6.58%.
In the case of `O=C(c1n[nH]c(=O)c2ccccc12)N1CCN(Cc2ccc3c(c2)OCO3)CC1`, the “hERG current change (%, negative = inhibition) at 10uM” value is reported as 2.15%.
In the case of `COc1ccc2cc(C3CC(c4cccs4)=NN3S(C)(=O)=O)c(Cl)nc2c1` (stereo not drawn), the “hERG current change (%, negative = inhibition) at 10uM” value is reported as -15.5%.
With `CCc1nnc(NC(=O)CSc2nnc(CNc3ccc(C)cc3)n2C)s1` the “hERG current change (%, negative = inhibition) at 10uM” value was 19.2%.
With `O=C(N/N=C\C=C\c1ccco1)c1cncc(Br)c1` the “hERG current change (%, negative = inhibition) at 10uM” value was -14.2%.
For `COC(=O)c1cc(C(=O)OCC(=O)N(C)C2CCS(=O)(=O)C2)cc([N+](=O)[O-])c1` (stereo not drawn), the “hERG current change (%, negative = inhibition) at 10uM” value was 7.96%.
For `Cc1ccccc1OCCN1C(=O)NC2(CCCc3ccccc32)C1=O` (stereo not drawn), the “hERG current change (%, negative = inhibition) at 10uM” value was -24.6%.
`Cc1cc(OCC(=O)O)c2c3c(c(=O)oc2c1)CCCC3` was tested, and the “hERG current change (%, negative = inhibition) at 10uM” value was 15.5%.
With `N#Cc1ccc(NC(=O)c2nc(-c3ccccc3)n(-c3ccccc3)n2)cc1` the “hERG current change (%, negative = inhibition) at 10uM” value was -29%.
For `Cc1nnc(SC(C)C(=O)Nc2nccs2)s1` (stereo not drawn), the “hERG current change (%, negative = inhibition) at 10uM” value was 33.3%.
`CCCn1c(C(O)c2ccc(OC)c(OC)c2)nc2ccccc21` (stereo not drawn) was tested, and the “hERG current change (%, negative = inhibition) at 10uM” value was 6.88%.
For `O=c1[nH]nc(SCCS(=O)(=O)c2ccc(F)cc2)n1-c1ccccc1`, the “hERG current change (%, negative = inhibition) at 10uM” value was -0.412%.
For `Cc1c(CN(C)C(=O)c2sc3cc(Cl)ccc3c2Cl)cnn1C`, the “hERG current change (%, negative = inhibition) at 10uM” value was -46.5%.
For `COc1ccc(CN2c3cc(S(=O)(=O)N4CCOCC4)ccc3N3CCCC32)cc1` (stereo not drawn), the “hERG current change (%, negative = inhibition) at 10uM” value was -10.6%.
`COc1ccccc1N(C(C)=O)C1SC(=O)N(c2ccccc2)C1=O` (stereo not drawn) was tested, and the “hERG current change (%, negative = inhibition) at 10uM” value was 14%.

From publication PMC4336329 (PLoS ONE, 2015)
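Also: peak tail current of the secondary pulse compared with the same well before compound.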
